Screen size: about 50,000 compounds; about 800 (1.6%) showed an effect of 50% or more. The list shows a part of the results.
target: Bcl-2-like protein 10 (Homo sapiens) (UniProt Q9HD36); assay: TR3 peptide-Bcl-B binding displacers, biochemical primary FP assay, phenotype converters (AID 1240); details: GST-Bcl-B / FITC-TR3 peptide fluorescence polarization; stronger effect = higher value; compound at 3.75 mg/L;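 note: 0% = Bcl-B with tracer peptide and DMSO and 100% = tracer peptide lacking Bcl-B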
Chain of UniProt Q9HD36 (Q9HD36 whole entry, looked up): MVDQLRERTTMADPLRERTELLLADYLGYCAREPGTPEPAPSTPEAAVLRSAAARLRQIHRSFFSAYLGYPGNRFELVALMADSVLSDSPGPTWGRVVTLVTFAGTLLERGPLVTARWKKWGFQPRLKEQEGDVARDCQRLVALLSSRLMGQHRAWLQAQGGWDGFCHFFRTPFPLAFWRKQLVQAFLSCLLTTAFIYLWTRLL

| Compound | displacement [%] |
| --- | --- |
| O=C(Cc1ccc(Cl)cc1)NCCCN1CCOCC1 | -3.1 |
| NS(=O)(=O)c1ccc(NC(=O)Nc2cccc(Cl)c2)cc1 | 11.6 |
| NS(=O)(=O)c1ccc(CCNC(=O)Nc2cccc(Cl)c2)cc1 | 13.4 |
| O=C(Cn1c2ccccc2c(=O)c2ccccc21)N/N=C/c1cc([N+](=O)[O-])ccc1N1CCCCCC1 | -7 |
| CCOC(=O)C1=C(C)OC(N)=C(C#N)C1c1ccccc1Cl (stereo not drawn) | 2 |
| COc1cc(C2CC(=O)Nc3c2ccc2ccccc32)c(OC)cc1Br (stereo not drawn) | -2.9 |
| CCOC(=O)c1sc(C)c2c(=O)n(CCc3ccccc3)nnc12 | -7.7 |
| CC(C(=O)O)N1C(=O)/C(=C/c2cccc(Br)c2)SC1=S (stereo not drawn) | -6.3 |
| O=C(NCc1ccccc1)C1CN(S(=O)(=O)c2ccccc2)CCN1S(=O)(=O)c1ccccc1 (stereo not drawn) | 9 |
| O=C1N=c2ccc([N+](=O)[O-])cc2=C1c1sc(NS(=O)(=O)c2ccccc2)nc1O | 13 |
| O=C(c1cccc(Br)c1)N1N=C(c2ccc(F)cc2)CC1(O)C(F)(F)F (stereo not drawn) | 3.9 |
| COc1ccc2c(=O)c(-c3ccccc3OC)c(C(F)(F)F)oc2c1 | 6.3 |
| CCOc1ccc(NC(=O)c2ccc(C#Cc3ccccc3)cc2)cc1 | -9.1 |
| Cc1ccc(/C=C/C(=O)Nc2ccc(S(N)(=O)=O)cc2)cc1 | -8 |
| NS(=O)(=O)c1ccc(NC(=O)c2ccc(Br)o2)cc1 | 8.2 |
| Cc1ccc(C(=O)N2N=C(c3ccccc3)CC2(O)C(F)(F)F)cc1 (stereo not drawn) | 1.9 |
| OCC1(CO)COC2(CCN(Cc3ccccc3)CC2)N1 | -2.4 |
| CCOC(=O)c1ccc(-c2ccc(/C=C3/SC(=S)N(CC(=O)O)C3=O)o2)cc1 | -83.7 |
| CCN=C(NCC)SC1CC(=O)N(c2cccc(OCC)c2)C1=O (stereo not drawn) | -3.2 |
| CCC1(C)CC(CCNCc2ccc(N(C)C)cc2)(c2ccc(OC)cc2)CCO1 (stereo not drawn) | -0.8 |
| Cc1ccc(C(C)C)c(OCC(O)Cn2cnc3cc(C)c(C)cc32)c1 (stereo not drawn) | 1.1 |
| COC(=O)c1cc(-c2ccc(OC)cc2)nc2ccc(Br)cc12 | -4.1 |
| CC(C)Cn1cc(I)c(=O)n(CC(C)C)c1=O | -7.6 |

| Compound | displacement [%] |
| --- | --- |
| COc1cccc(C=C2C(=O)NC(=O)NC2=O)c1O | 12.7 |
| C=CCOC(=O)C1=C(C)NC(C)=C(C(=O)OCC=C)C1c1ccc(C)o1 | 12.2 |
| CCOC(=O)c1sc(NC(=O)COc2cccc(C)c2C)nc1C | -3.2 |
| CC(C)c1cc(NS(=O)(=O)c2ccc(Cl)cc2)cc(C(C)C)c1O | -2.2 |
| CC(C)(C)NCC(=O)NCCNc1ccc([N+](=O)[O-])cc1Cl | -4.8 |
| Cc1cc(=O)[nH]c(SCc2ccc(Cl)cc2Cl)n1 | 14.5 |
| COc1cc([N+](=O)[O-])ccc1NC(=O)CC(C)=O | -5.3 |
| CCOc1ccc2c(c1)C(c1ccccc1C(F)(F)F)CC(=O)N2 (stereo not drawn) | -5.2 |
| O=C(Nc1ccccn1)c1cc(-c2ccc(Cl)c(Cl)c2)nc2ccccc12 | 10 |
| CC(C)CC(=O)N1CCN(C(=O)COc2ccc3ccccc3c2)CC1 | 1.4 |
| CCCOc1ccc(N2C(=O)CC(N(Cc3ccc(OC)cc3)C(=O)/C=C/C(=O)O)C2=O)cc1 (stereo not drawn) | 3.3 |
| Cc1ccc(Nc2nnc(-c3ccc(C(=O)NCCO)cc3)c3ccccc23)c(C)c1 | 0.8 |
| COc1ccc2c(c1)CCC/C2=N/NC(=O)c1ccoc1C | 1 |
| COc1ccc(NC(=O)COc2ccccc2OC)c(OC)c1 | 9.6 |
| O=C(O)CCCCCN1C(=O)C(O)=C(C(=O)/C=C/c2ccccc2)C1c1ccc(O)cc1 (stereo not drawn) | -1.3 |
| COc1ccc(C(=O)N2CCN(C3CCN(Cc4ccccc4)CC3)CC2)cc1OC | -8.5 |
| CC(C)(CO)C(O)C(=O)NCc1ccc(C(=O)O)cc1 (stereo not drawn) | -3.3 |
| CCOC(=O)c1c(-c2ccccc2)oc2c1C(=O)c1ccccc1C2=O | -0.2 |
| O=C(NCCN1CCN(C(=O)c2ccc([N+](=O)[O-])cc2)CC1)C(=O)Nc1ccc(Cl)cc1 | 16.8 |
| CC(C)c1ccccc1NC(=O)C1C2C=CC(C2)C1C(=O)O (stereo not drawn) | 9.2 |
| CCc1ccc(CN2CCN(C(=O)CC(C)C)CC2)cc1 | 7.7 |
| CCOC(=O)c1c(NC(C)=O)sc2c1CCC/C2=N/OC(=O)c1ccccc1 | 6.5 |
| O=C(Nc1c[nH]c(=O)[nH]c1=O)c1ccccc1Cl | 0.1 |

| Compound | displacement [%] |
| --- | --- |
| CCC(C(=O)N1CCN(c2cccc(Cl)c2)CC1)c1ccccc1 (stereo not drawn) | 9.6 |
| Fc1ccccc1CSc1nnnn1-c1ccccc1F | -6 |
| O=C1CC(c2ccccc2)CC2=C1C(c1ccc(Br)cc1)Nc1ccccc1N2 (stereo not drawn) | -2.5 |
| O=C(O)c1cccc(NC(=O)c2ccc(COc3ccc(Cl)cc3)cc2)c1 | -6.6 |
| O=C(O)c1sc2cccc(Cl)c2c1Cl | -8.3 |
| O=C(c1ccncc1)N1CCN(Cc2ccccc2C(F)(F)F)CC1 | -1.1 |
| COc1ccc(CCC(=O)Nc2sc3c(c2C(N)=O)CCCCC3)cc1 | 16.3 |
| O=C1C2C3C=CC(CC3)C2C(=O)N1/N=C/c1cc([N+](=O)[O-])cc(Br)c1O (stereo not drawn) | 7.3 |
| COc1ccc(N2C(=O)/C(=C/c3cc(Br)c(OC)c(OC)c3)C(=O)NC2=S)cc1 | -1.9 |
| COc1ccc(/C(N)=N/OC(=O)COc2ccc(C)cc2C)cc1 | -2.1 |
| COc1ccc(N(CC(=O)Nc2ccc3ccccc3c2)S(=O)(=O)c2ccc(C)cc2)cc1 | 3.5 |
| O=C(Nc1nc(-c2cccc3ccccc23)cs1)c1cccs1 | -1.5 |
| COc1cc(C2/C(=C(/O)c3ccccc3)C(=O)C(=O)N2c2cccc(C(F)(F)F)c2)ccc1O (stereo not drawn) | 3.8 |
| COc1ccc(S(=O)(=O)N2CCN(C(=O)c3ccco3)CC2)cc1 | 12.3 |
| O=C(O)/C(=C\c1ccccc1)NC(=O)c1ccccc1I | 1.7 |
| O=C(CC(=O)N/N=C/c1c(Cl)cccc1Cl)NCc1cccnc1 | -0.6 |
| CCOC(=O)c1nc2ccccc2[nH]c1=O | 14.3 |
| Cc1onc(-c2ccccc2Cl)c1C(=O)Nc1cccc(C(=O)O)c1 | -11.7 |
| COc1cc2ccccc2cc1C(=O)Nc1cccc(S(N)(=O)=O)c1 | -3.5 |
| CS(=O)(=O)N(CC(=O)NCCNC(=O)CN(c1ccc(Cl)cc1)S(C)(=O)=O)c1ccc(Cl)cc1 | 11.6 |
| Cc1cc(N/C=C/C(=O)c2ccccc2)ccc1Br | -6.8 |
| CN(C)CCN1C(=O)C(=O)/C(=C(/O)c2ccccc2)C1c1cccc([N+](=O)[O-])c1 (stereo not drawn) | -11.2 |
